Test results from ChEMBL document CHEMBL4888484, “Replenishing the malaria drug discovery pipeline: Screening and hit evaluation of the MMV Hit Generation Library 1 (HGL1) against asexual blood stage Plasmodium falciparum ,using a nano luciferase reporter read-out” (2022).
Out of some 150,000 compounds screened, about 540 (0.36%) showed an effect of 50% or more. The list shows a part of the results.

tested on: Plasmodium falciparum; assay: Primary screen in NF54 nanoGlo assay, in single point, at 2uM, 72h; a lower Z score goes with more inhibition; assay type: functional, Erythrocyte; details: timepoint 72 hour

Structure (SMILES) | % Inhibition [%] | Z score
Cc1cc(C)nc(N2CC[C@H](N(C)C(=O)OC(C)(C)C)C2)n1 | -7 | 1.17
Cc1nnc(N[C@H]2CCN(Cc3ccccc3)C2)o1 | 4 | -0.71
O=S(=O)(c1ccccc1)c1cnc2ccccc2c1N1CCCC1 | -9 | 1.46
O=C(c1cn(C[C@H]2CCCO2)nn1)N1CCC(Oc2cccc(C(F)(F)F)c2)CC1 | -16 | 2.27
COc1ccc(NC(=O)[C@@H](c2ccccc2)C2CC2)cn1 | 0 | 0.02
CCOC(=O)c1nnc2ccccc2c1N(C)Cc1ccccc1 | -8 | 0.82
Cc1ccc(CNC(=O)c2[nH]c3ccc(F)cc3c2NC(=O)c2ccccc2)cc1 | -1 | 0.25
Cc1cccnc1C1CCCC(NCc2ncnn2C(C)(C)C)C1 (stereo not given) | 0 | 0.06
COc1ccc(OC)c(CN(Cc2ccc3c(c2)OCO3)Cc2nc(C(=O)N3CCN(C(C)=O)CC3)co2)c1 | -9 | 0.9
COc1cc(C(=O)NC(C)(C)CN(C)C)c(Cl)cc1OC(C)C | 7 | -1.35
Cc1ccc(NC(=O)Cn2cnc3nc(-c4cccnc4)ncc3c2=O)cc1F | -17 | 2
CN(C)c1cc(C(=O)Nc2ncc(Cc3ccc(F)cc3F)s2)ccn1 | 0 | 0
Cc1cc(F)ccc1OC(=O)c1cn(C)nc1C | -7 | 0.75
COc1ncccc1CNC1CCCC1C1CCCN1C(=O)OC(C)(C)C (stereo not given) | 7 | -0.87
C=CCC(O)(CC=C)[C@H](C)NC(=O)c1ncc[nH]1 | -7 | 1.26
Cc1ccc2nc(COc3cccc(C(=O)N(CC(F)F)C[C@H]4CCC=CO4)c3)cn2c1 | -2 | 0.29
Cc1c[nH]nc1COCc1cc(F)ccc1OC(F)F | 2 | -0.17
Cc1nc2ccnn2cc1C(=O)N1CC[C@@](F)(c2ccccc2F)C1 | -7 | 0.88
Cc1nc(-c2ccccc2)n(CCCOc2ccc(C)c(C)c2)n1 | -2 | 0.36
CC[C@H](NC(=O)c1c(C)ncn1C)c1ccc(C)cn1 | -13 | 1.41
C[C@H]1CN(C)CCN1C(=O)c1csnn1 | -2 | 0.31
O=C1COc2ccc(S(=O)(=O)N3CCCc4cc(C(=O)O)ccc43)cc2N1 | -2 | 0.3

Structure (SMILES) | % Inhibition [%] | Z score
O=C(Cn1ncccc1=O)N1CC(S(=O)(=O)C2CCCCC2)C1 | -21 | 2.65
Cc1cc(C(=O)NCc2ccc(Cl)cc2)c2cccc(-c3ccccc3)c2n1 | 7 | -0.81
CC(C)n1cc([C@]2(O)CCCN(C(=O)COCc3ccccc3)C2)nn1 | 0 | -0.04
CCCc1nnsc1C(=O)Nc1ccc2[nH]ccc2c1 | 5 | -0.78
CCO[C@H]1CN(C)C[C@@H]1NS(=O)(=O)c1ccc(C)cc1 | -1 | 0.19
NC[C@H]1CC[C@@H](C(=O)NC2CC2c2c(F)cccc2F)O1 (stereo not given in full) | 11 | -1.15
c1ccc2c(-c3noc([C@@H]4CN5CC6CC5(CO4)C6)n3)nccc2c1 | -11 | 1.69
COc1ccnc(-c2nc([C@H]3CCOC3)no2)c1 | -5 | 0.8
Cc1nc(-c2csc(S(=O)(=O)N3CCC[C@H](C(=O)N4CCCC4)C3)c2)no1 | -5 | 0.62
O=C(CCNC(=O)c1ccncc1)NCCO | -9 | 1.65
O=C(NC[C@H]1CCC(=O)N(Cc2ccccc2)CC1)c1cncc(Br)c1 | -16 | 1.55
Cc1nc(-c2ccncc2)sc1-c1ccncn1 | 2 | -0.24
O=C(C(=O)N(CC(F)(F)F)C1CC1)c1ccc(-c2ccccc2)cc1 | 8 | -1.09
Cc1ccc(S(=O)(=O)N2CC(=O)N(C3CCCC3)C3(CCCCC3)C2)c(C)c1 | -7 | 0.99
CCn1cc(Cl)c(C(=O)N(C[C@H]2CCOC2)C2CCN(C)CC2)n1 | -1 | 0.07
CC[C@H]1COCCN1S(=O)(=O)N1CCC(OC)CC1 | -2 | 0.16
Cc1ccc(Oc2ccc(Cl)cc2NC(=O)CCc2nnc(-c3ccsc3)o2)cc1 | -3 | 0.41
O[C@@H]1CCCC[C@H]1CNCc1cnnn1Cc1ccccc1 | 0 | 0.05
C#Cc1cccc(NC(=O)C(C)(C)C)c1 | -10 | 1.43
CC(C)S(=O)(=O)CC(=O)N1CCC[C@H](C(C)(C)C)CC1 | -12 | 1.58
Cc1nccn1Cc1ccc(NC2CCN(C(C)C)CC2)cc1 | -8 | 0.74
Cc1ccsc1CN(C)Cc1n[nH]c(C)c1Cl | -3 | 0.32

Structure (SMILES) | % Inhibition [%] | Z score
COc1cccc(OCCc2ccccc2S(N)(=O)=O)c1 | -3 | 0.47
CC(=O)N1CCC(C(=O)N2C[C@@H]3NC(=O)CN(C4CC4)Cc4cccc(c4)Oc4cccc(c4)CO[C@H]3C2)CC1 | -2 | 0.26
COc1cc(C(=O)N2CCc3[nH]ncc3C2)nc(OC)n1 | -10 | 1.44
CN(Cc1nnc[nH]1)C(=O)c1ccc(C(F)(F)F)cc1Cl | -9 | 1.52
C=CCCC1COC(c2ccc(C#N)cc2)OC1 (stereo not given) | -47 | 5.53
O=C(c1ccc[n+]([O-])c1)N(Cc1ccccc1)Cc1ccccc1 | 34 | -4.96
O=C(N[C@H](c1cccnc1)C(F)(F)F)c1cnn(-c2ncc3c(n2)-c2ccccc2CC3)c1C1CC1 | -1 | 0.21
CCOC(=O)c1cnn(-c2ccccn2)c1CN1CC[C@@](O)(c2ccccc2)[C@H]2CCCC[C@H]21 | -9 | 1.09
CCOC(=O)CCNC(=O)Cc1csc(NC(C)C(C)CC)n1 (stereo not given) | -11 | 1.92
O=C(O)CN(C1CC1)C1Cc2ccccc2C1 | -7 | 0.89
Cc1noc(C)c1CCC(=O)N[C@H]1CCCN(C)C1 | 7 | -0.87
O=C1O[C@]2(CCCN(C(=O)Cn3ccc4ccccc43)C2)c2ccccc21 | -7 | 0.84
COc1cccc(F)c1-c1cc(-n2cccn2)ncn1 | -7 | 0.78
c1ccc2c(c1)C[C@H](Cc1ccc(N3CCCC3)nn1)CO2 | -17 | 2.3
CCC[C@H](C)N1CC2(CCN(C(=O)c3cn(CCC)nc3C)CC2)OC1=O | 0 | -0.07
O=C(NCc1ccco1)C1Cc2cc(C(F)(F)F)ccc2N2CCN(Cc3ccc(Cl)cc3)CC12 (stereo not given) | 1 | -0.15
Cc1cccc(C)c1Oc1ccccc1NC(=O)C(=O)N1CCC(O)CC1 | 3 | -0.37
CC[C@H](NS(=O)(=O)N1CCCCC1)c1cn2cccnc2n1 | 1 | -0.09
Cc1ocnc1C(=O)N(Cc1ccccc1)[C@H]1CC(C)(C)OC1(C)C | 5 | -0.84
COc1ccc(C[C@H]2CCOC3(CCN(C(=O)C4CCCC4)CC3)C2)cc1 | -14 | 1.81
Cc1cc2c(cc1C)N(CC(=O)Nc1ccc(Cl)cc1F)C(=O)CC(c1cccs1)=N2 | 0 | 0.05
COc1ccccc1OCC(=O)c1ccc2c(c1)N([C@@H](C)C(=O)NC1CC1)C(=O)CO2 | -11 | 1.05

Structure (SMILES) | % Inhibition [%] | Z score
Cc1ccc(NC(=O)CN2CCC[C@H]2c2nc(-c3ccccc3F)c[nH]2)cc1 | -7 | 0.85
CC(C)CCOc1ccc(NC(=O)c2ccc(C#N)cn2)nn1 | -6 | 0.79
O[C@@H](Cn1ccnc1-c1ccccc1-c1ccco1)c1ccccc1 | 5 | -0.89
C[C@H]1COCCN1C(=O)c1cccc2sc(C(F)(F)F)nc12 | 0 | 0.07
Fc1cc(Cl)ccc1-c1ccc(CNCCc2c[nH]cn2)o1 | -2 | 0.4
COc1ccc(-c2c(C(=O)N3CCCCC3)nc3ccccn23)cc1 | -1 | 0.16
CN(Cc1cnn(-c2ccccc2)c1)c1ccc(F)cn1 | 4 | -0.51
Cc1noc(NC(=O)[C@@H](C)Cn2cncn2)c1-c1ccccc1 | 4 | -0.35
Cc1cc(F)c2nc(O)cc(C(=O)N3CCC4OCCCC4C3)c2c1 (stereo not given) | -9 | 0.81
C=CC[C@]1(CO)CCCN(C(=O)c2cc(C(C)C)n[nH]2)C1 | -4 | 0.75
N#Cc1cccnc1NCCN1CCCOCC1 | -8 | 1.33
COc1ccc(Cn2c(CCC(=O)NCc3ccc(Cl)cc3)nc3ncccc3c2=O)cc1 | 3 | -0.55
Cc1c(Cl)cnn1CCOCC(F)(F)C(F)F | -4 | 0.69
CS(=O)(=O)NCCOCc1ccc(Cl)cc1Cl | -4 | 0.58
Cc1cccnc1CNC(=O)N1CCC([C@H](O)c2ccccn2)CC1 | -3 | 0.6
N#Cc1nc2nnc3ccc(O)cc3n2c1C#N | -34 | 3.96
Cc1ccc(C(=O)Cn2cnc3c2c(=O)n(C[C@H]2CCCO2)c(=O)n3-c2ccccc2C)c(C)c1 | -16 | 1.51
CC1CCCC(NC(=O)CN(C)C2CCC(CO)CC2)C1C (stereo not given) | -12 | 1.4
CCC1CCC(N(C)C(=O)c2cnc3c(C)cccn3c2=O)CC1 (stereo not given) | -6 | 0.7
